Source: the supplement of paper PMC12217912
The list shows a part of the results. The full chains were built here from the parent and the listed change. Values near 0.05 are background.

B1: TEV protease; numbered along this chain (parent)
chain: MGESLFKGPRDYNPISSSICHLTNESDGHTTSLYGIGFGPFIITNKHLFRRNNGTLVVQSLHGVFKVKDTTTLQQHLVDGRDMIIIRMPKDFPPFPQKLKFREPQREERICLVTTNFQTKSMSSMVSDTSCTFPSGDGIFWKHWIQTKDGQCGSPLVSTRDGFIVGIHSASNFTNTNNYFTSVPKNFMELLTNQEAQQWVSGWRLNADSVLWGGHKVFMVKPEEPFQPVKEATQL

Variants of: B1
Test: raw area under fraction-flipped curve 0-4 h after induction (AUC4h, not background-subtracted), DNA-recorder readout of cleavage of the substrate (dimensionless); higher = more cleavage of the substrate by the protease variant
Settings: temperature: 34 °C; time window: 0-4 h after rhamnose induction
Protocol: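 In vivo DNA recorder in E. coli TOP10(DE3) ΔrhaA at 34 °C. Each TEVp single-site mutant (parent TEVp 0) is paired with a single-site variant of the 7-mer TEVs (canonical ENLYFQ|S). The substrate sits between flexible linkers in a Bxb1-sfGFP-TEVs-SsrA fusion, so cleavage stabilises Bxb1 and speeds flipping of a recombination array, read by NGS. The value is the raw area under the fraction-flipped curve over 0-4 h after rhamnose induction (AUC4h), with ≥20 reads per time point. It is not background-subtracted; inactive controls average about 0.047.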
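Further: Bxb1 expression induced with 0.2% (w/v) L-rhamnose at OD600 near 0.5, cultures sampled hourly, flipped fraction per protease–substrate barcode pair counted by paired-end Illumina sequencing.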

| Variant | area with substrate EALYFQS | area with substrate ECLYFQS | area with substrate EELYFQS | area with substrate EHLYFQS | area with substrate EILYFQS | area with substrate EKLYFQS | area with substrate EMLYFQS | area with substrate EPLYFQS | area with substrate EQLYFQS | area with substrate ERLYFQS | area with substrate ESLYFQS | area with substrate ETLYFQS | area with substrate EVLYFQS | area with substrate EWLYFQS | area with substrate EYLYFQS | area with substrate ELLYFQS | area with substrate EFLYFQS | area with substrate EGLYFQS | area with substrate EDLYFQS |
| --- | --- | --- | --- | --- | --- | --- | --- | --- | --- | --- | --- | --- | --- | --- | --- | --- | --- | --- | --- |
| I84S | 0.061 | 0.0693 | 0.0776 | 0.0912 | 0.0791 | 0.0766 | 0.0658 | 0.0642 | 0.0824 | 0.0621 | 0.0721 | 0.0542 | 0.0649 | 0.0608 | 0.0616 | – | – | – | – |
| I84A | 0.106 | 0.0583 | – | 0.0843 | 0.0718 | – | 0.0881 | – | 0.0806 | – | 0.0792 | 0.075 | 0.072 | – | – | 0.0822 | – | – | – |
| K90V | 0.11 | 0.107 | – | – | – | 0.112 | – | 0.0955 | 0.11 | – | 0.0945 | – | 0.0893 | – | – | – | 0.109 | 0.0954 | – |
| K90G | 0.133 | – | – | – | 0.107 | 0.108 | – | – | – | – | 0.111 | – | – | – | – | 0.0867 | 0.0989 | 0.105 | 0.104 |
| K90H | 0.101 | 0.11 | – | – | 0.0945 | 0.0799 | 0.113 | 0.128 | – | 0.0995 | 0.0898 | 0.081 | 0.0912 | – | – | 0.0856 | – | 0.0767 | 0.137 |
| R102M | 0.0792 | 0.071 | 0.0652 | 0.0551 | – | 0.0536 | 0.0569 | 0.0354 | 0.0574 | 0.0601 | 0.0676 | 0.0548 | 0.0563 | 0.0456 | 0.0458 | – | 0.0539 | 0.0541 | – |
| F95H | 0.101 | 0.114 | 0.108 | – | 0.0918 | 0.109 | 0.0816 | 0.0843 | 0.109 | – | – | – | 0.0763 | – | 0.0953 | 0.0927 | 0.0831 | 0.0995 | – |
| F95A | 0.108 | 0.0904 | 0.093 | 0.104 | 0.0663 | 0.0853 | 0.0863 | 0.105 | – | 0.0922 | 0.0882 | 0.0824 | 0.0863 | – | – | 0.0754 | – | – | – |
| Q97H | 0.162 | 0.0921 | – | – | – | 0.0868 | 0.101 | – | – | 0.086 | 0.0752 | 0.106 | – | – | 0.123 | 0.0947 | – | – | – |
| Q97A | 0.138 | 0.115 | 0.122 | – | 0.0809 | – | 0.103 | – | – | 0.112 | 0.108 | – | 0.107 | – | 0.105 | – | – | – | – |
| R87H | 0.114 | 0.0937 | – | – | – | 0.113 | – | 0.109 | – | – | – | – | – | – | – | – | – | – | – |
| D82H | 0.0601 | – | 0.0543 | 0.0319 | 0.0544 | 0.021 | 0.0621 | – | – | – | 0.0598 | – | 0.0514 | – | – | 0.056 | 0.078 | – | – |
| D82L | 0.0537 | 0.0599 | – | – | – | 0.0348 | – | 0.0503 | 0.0537 | – | 0.0573 | 0.0526 | 0.0595 | – | – | 0.0398 | – | 0.041 | 0.0514 |
| Q105I | 0.122 | – | – | – | 0.0802 | – | 0.11 | – | 0.101 | – | 0.104 | – | 0.108 | – | – | 0.0743 | – | – | – |
| K98P | 0.11 | – | 0.116 | – | 0.0983 | 0.094 | 0.0954 | 0.112 | 0.145 | – | 0.101 | 0.122 | – | 0.0933 | – | 0.0858 | – | 0.0876 | 0.0971 |
| K98N | 0.108 | 0.0771 | – | – | 0.0966 | 0.141 | 0.0992 | 0.12 | – | 0.106 | 0.078 | – | 0.104 | 0.101 | – | – | – | – | 0.127 |

| Variant | area with substrate EALYFQS | area with substrate ECLYFQS | area with substrate EELYFQS | area with substrate EHLYFQS | area with substrate EILYFQS | area with substrate EKLYFQS | area with substrate EMLYFQS | area with substrate EPLYFQS | area with substrate EQLYFQS | area with substrate ERLYFQS | area with substrate ESLYFQS | area with substrate ETLYFQS | area with substrate EVLYFQS | area with substrate EWLYFQS | area with substrate EYLYFQS | area with substrate ELLYFQS | area with substrate EFLYFQS | area with substrate EGLYFQS | area with substrate EDLYFQS |
| --- | --- | --- | --- | --- | --- | --- | --- | --- | --- | --- | --- | --- | --- | --- | --- | --- | --- | --- | --- |
| K98S | 0.108 | 0.1 | 0.127 | 0.095 | 0.0949 | – | 0.108 | 0.132 | 0.121 | – | 0.106 | – | – | 0.0966 | 0.174 | 0.103 | – | 0.0969 | – |
| K98F | 0.1 | 0.0486 | – | – | – | 0.0842 | – | – | 0.105 | – | 0.0984 | 0.105 | 0.0995 | 0.104 | 0.102 | – | – | 0.0872 | 0.12 |
| I85Y | 0.0635 | – | – | 0.0483 | 0.0579 | 0.0622 | 0.0772 | 0.0588 | – | 0.0563 | 0.0669 | – | 0.0605 | – | – | – | 0.0507 | – | 0.0636 |
| I85T | 0.0653 | – | 0.0632 | – | 0.0577 | – | 0.077 | 0.0679 | 0.0578 | 0.0916 | 0.069 | – | 0.0571 | – | 0.0459 | – | – | 0.0587 | – |
| P89Y | 0.0899 | 0.0759 | – | 0.0846 | – | 0.0583 | – | – | 0.0878 | 0.0678 | 0.0644 | – | 0.0754 | – | – | 0.0595 | – | – | – |
| P89L | 0.0669 | – | – | 0.0736 | 0.065 | 0.0585 | – | – | – | 0.0715 | 0.0785 | 0.0655 | – | – | – | – | 0.0811 | – | – |
| F101V | 0.096 | 0.0859 | – | 0.0758 | – | 0.0523 | – | – | 0.0732 | – | – | 0.0807 | – | – | – | – | – | 0.0714 | 0.0837 |
| L99Q | 0.105 | – | 0.122 | 0.076 | 0.0893 | 0.0971 | 0.104 | – | 0.115 | 0.121 | 0.105 | – | – | – | – | – | – | 0.0757 | – |
| L99R | 0.105 | – | 0.0964 | 0.0917 | 0.0956 | 0.094 | 0.0941 | – | 0.0928 | 0.0784 | 0.0933 | 0.114 | 0.0844 | 0.0763 | 0.0921 | 0.0912 | 0.0697 | – | 0.102 |
| L99Y | 0.0836 | – | 0.0761 | – | – | 0.0745 | – | – | 0.08 | – | 0.0706 | 0.0815 | 0.0677 | – | – | – | 0.0684 | – | – |
| E103T | 0.15 | 0.0982 | 0.142 | – | 0.0858 | 0.118 | – | – | – | 0.0801 | – | 0.0933 | 0.0911 | – | – | – | – | 0.0916 | – |
| P94W | 0.118 | – | 0.119 | – | 0.107 | 0.118 | 0.0506 | 0.112 | 0.116 | 0.086 | 0.14 | 0.0897 | 0.0994 | – | 0.0958 | – | – | – | 0.118 |
| P94T | 0.126 | 0.111 | – | – | 0.115 | 0.118 | – | – | 0.127 | – | 0.106 | – | 0.0971 | 0.11 | – | 0.122 | – | – | – |
| P94A | 0.13 | 0.107 | – | – | – | – | – | – | 0.113 | – | 0.102 | – | – | – | 0.103 | 0.102 | – | – | – |
| K100Y | 0.0992 | 0.107 | – | – | 0.0922 | 0.0562 | 0.151 | – | 0.144 | 0.0975 | 0.0978 | – | – | – | – | – | 0.135 | – | – |
| K100G | 0.115 | – | – | – | 0.0781 | 0.0598 | – | 0.103 | 0.104 | – | 0.0944 | 0.083 | 0.0989 | 0.0964 | 0.12 | 0.0857 | – | 0.0984 | 0.109 |
